Assay results published in PubChem BioAssay (NCI).
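Step 1: Grow cells in 96-well plates. Step 2: Expose to compound for 48 hours at 5 concentrations. Step 3: Interpolate endpoints linearly; if unreached, use highest concentration. GI50: concentration for 50% inhibition of growth. Definition used: TGI = concentration required for complete inhibition of growth.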

Test system: NCI-H322M lung
Assay: DTP human tumour cell line panel, 48 h

| Compound | GI50 | TGI |
| --- | --- | --- |
| NS(=O)(=O)c1cccc(Nc2nc(SCC(=O)c3ccc([N+](=O)[O-])cc3)nc3ccccc23)c1 | 49.9 µM | > 100 µM |
| C#C[C@]1(O)CC[C@H]2[C@@H]3CC=C4c5sc(-c6ccc7c(c6)OCO7)nc5CC[C@]4(C)[C@H]3CC[C@@]21C | 3.33 µM | 79 µM |
